Measurements reported in the supplement of paper PMC12230231.
± gives the standard deviation of the averaged measurements. Restriction of a single-cycle SIVsab GFP reporter by TRIM5α v1-loop variants in CRFK cells. Human variants: read share among cells still uninfected after two challenges over input, higher = gained restriction. Rhesus variants: share among infected cells over input, higher = lost restriction. Reporter dose not given per row. No active / inactive call per row; the paper calls a change when both replicates lie above its controls (mean + 2 SD of stop or wild-type variants, or the top frameshift score). Residues outside the varied loop are taken from Swiss-Prot. The paper reads the human single-substitution scores as noise; they and the rhesus combinations repeat poorly (rank correlation 0.3 to 0.4), indel scores repeat only for the top variants, rhesus substitutions well (0.9).

Tested on: SIVsab (simian immunodeficiency virus of sabaeus monkeys), single-cycle GFP reporter, in CRFK cells
Experiment: enrichment among uninfected cells over input (fold); higher = stronger restriction
Conditions: library: human / rhesus combinations
Protocol: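 Pools of CRFK cells expressing variants of the TRIM5α v1 loop were challenged with the single-cycle reporter, sorted by GFP and sequenced; mean of two replicates.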

Row | Sequence | enrichment
1 | MASGILVNVKEEVTCPICLELLTQPLSLDCGHSFCQACLTANHKKSMLDKGESSCPVCRISYQPENIRPNRHVANIVEKLREVKLSPEGQKVDHCARHGEKLLLFCQEDGKVICWLCERSQEHRGHHTFLTEEVAREYQVKLQAALEMLRQKQQEAEELEADIREEKASWKTQIQYDKTNVLADFEQLRDILDWEESNELQNLEKEEEDILKSLTNSETEMVQQTQSLRELISDLEHRLQGSVMELLQGVDGVIKRTENVTLKKPETFPKNQRRVFRAPDLKGMLEVFRELTDVRRYWVDVTVAPNNISCAVISEDKRQVSSPKPQIIYQAPGTRYTFPTLVNFNYCTGILGSQSITSGKHYWEVDVSKKTAWILGVCAGFQPDAMCNIEKNENYQPKYGYWVIGLEEGVKCSAFQDSSFHTPSVPFIVPLSVIICPDRVGVFLDYEACTVSFFNITNHGFLIYKFSHCSFSQPVFPYLNPRKCGVPMTLCSPSS [human TRIM5α, 330-340 = QAPGTRYTFPTLV] | 0.447 ± 0.14
2 | MASGILVNVKEEVTCPICLELLTQPLSLDCGHSFCQACLTANHKKSMLDKGESSCPVCRISYQPENIRPNRHVANIVEKLREVKLSPEGQKVDHCARHGEKLLLFCQEDGKVICWLCERSQEHRGHHTFLTEEVAREYQVKLQAALEMLRQKQQEAEELEADIREEKASWKTQIQYDKTNVLADFEQLRDILDWEESNELQNLEKEEEDILKSLTNSETEMVQQTQSLRELISDLEHRLQGSVMELLQGVDGVIKRTENVTLKKPETFPKNQRRVFRAPDLKGMLEVFRELTDVRRYWVDVTVAPNNISCAVISEDKRQVSSPKPQIIYQARGTLFPSLVNFNYCTGILGSQSITSGKHYWEVDVSKKTAWILGVCAGFQPDAMCNIEKNENYQPKYGYWVIGLEEGVKCSAFQDSSFHTPSVPFIVPLSVIICPDRVGVFLDYEACTVSFFNITNHGFLIYKFSHCSFSQPVFPYLNPRKCGVPMTLCSPSS [human TRIM5α, 330-340 = QARGTLFPSLV] | 0.00684 ± 0.0058
3 | MASGILVNVKEEVTCPICLELLTQPLSLDCGHSFCQACLTANHKKSMLDKGESSCPVCRISYQPENIRPNRHVANIVEKLREVKLSPEGQKVDHCARHGEKLLLFCQEDGKVICWLCERSQEHRGHHTFLTEEVAREYQVKLQAALEMLRQKQQEAEELEADIREEKASWKTQIQYDKTNVLADFEQLRDILDWEESNELQNLEKEEEDILKSLTNSETEMVQQTQSLRELISDLEHRLQGSVMELLQGVDGVIKRTENVTLKKPETFPKNQRRVFRAPDLKGMLEVFRELTDVRRYWVDVTVAPNNISCAVISEDKRQVSSPKPQIIYQAPGTLFTFQSFVNFNYCTGILGSQSITSGKHYWEVDVSKKTAWILGVCAGFQPDAMCNIEKNENYQPKYGYWVIGLEEGVKCSAFQDSSFHTPSVPFIVPLSVIICPDRVGVFLDYEACTVSFFNITNHGFLIYKFSHCSFSQPVFPYLNPRKCGVPMTLCSPSS [human TRIM5α, 330-340 = QAPGTLFTFQSFV] | 0.489 ± 0.34
4 | MASGILVNVKEEVTCPICLELLTQPLSLDCGHSFCQACLTANHKKSMLDKGESSCPVCRISYQPENIRPNRHVANIVEKLREVKLSPEGQKVDHCARHGEKLLLFCQEDGKVICWLCERSQEHRGHHTFLTEEVAREYQVKLQAALEMLRQKQQEAEELEADIREEKASWKTQIQYDKTNVLADFEQLRDILDWEESNELQNLEKEEEDILKSLTNSETEMVQQTQSLRELISDLEHRLQGSVMELLQGVDGVIKRTENVTLKKPETFPKNQRRVFRAPDLKGMLEVFRELTDVRRYWVDVTVAPNNISCAVISEDKRQVSSPKPQIIYQAPGTLFTFQTLVNFNYCTGILGSQSITSGKHYWEVDVSKKTAWILGVCAGFQPDAMCNIEKNENYQPKYGYWVIGLEEGVKCSAFQDSSFHTPSVPFIVPLSVIICPDRVGVFLDYEACTVSFFNITNHGFLIYKFSHCSFSQPVFPYLNPRKCGVPMTLCSPSS [human TRIM5α, 330-340 = QAPGTLFTFQTLV] | 0.114 ± 0.12
5 | MASGILVNVKEEVTCPICLELLTQPLSLDCGHSFCQACLTANHKKSMLDKGESSCPVCRISYQPENIRPNRHVANIVEKLREVKLSPEGQKVDHCARHGEKLLLFCQEDGKVICWLCERSQEHRGHHTFLTEEVAREYQVKLQAALEMLRQKQQEAEELEADIREEKASWKTQIQYDKTNVLADFEQLRDILDWEESNELQNLEKEEEDILKSLTNSETEMVQQTQSLRELISDLEHRLQGSVMELLQGVDGVIKRTENVTLKKPETFPKNQRRVFRAPDLKGMLEVFRELTDVRRYWVDVTVAPNNISCAVISEDKRQVSSPKPQIIYGAPGTRYTFPTLTNFNYCTGILGSQSITSGKHYWEVDVSKKTAWILGVCAGFQPDAMCNIEKNENYQPKYGYWVIGLEEGVKCSAFQDSSFHTPSVPFIVPLSVIICPDRVGVFLDYEACTVSFFNITNHGFLIYKFSHCSFSQPVFPYLNPRKCGVPMTLCSPSS [human TRIM5α, 330-340 = GAPGTRYTFPTLT] | 0.0683 ± 0.094

Same assay, conditions: library: insertions and deletions

Row | Sequence | enrichment
6 | MASGILVNVKEEVTCPICLELLTQPLSLDCGHSFCQACLTANHKKSMLDKGESSCPVCRISYQPENIRPNRHVANIVEKLREVKLSPEGQKVDHCARHGEKLLLFCQEDGKVICWLCERSQEHRGHHTFLTEEVAREYQVKLQAALEMLRQKQQEAEELEADIREEKASWKTQIQYDKTNVLADFEQLRDILDWEESNELQNLEKEEEDILKSLTNSETEMVQQTQSLRELISDLEHRLQGSVMELLQGVDGVIKRTENVTLKKPETFPKNQRRVFRAPDLKGMLEVFRELTDVRRYWVDVTVAPNNISCAVISEDKRQVSSPKPQIIYGARGTFNYCTGILGSQSITSGKHYWEVDVSKKTAWILGVCAGFQPDAMCNIEKNENYQPKYGYWVIGLEEGVKCSAFQDSSFHTPSVPFIVPLSVIICPDRVGVFLDYEACTVSFFNITNHGFLIYKFSHCSFSQPVFPYLNPRKCGVPMTLCSPSS [human TRIM5α, 7-codon deletion at 335] | 0.762 ± 0.059
7 | MASGILVNVKEEVTCPICLELLTQPLSLDCGHSFCQACLTANHKKSMLDKGESSCPVCRISYQPENIRPNRHVANIVEKLREVKLSPEGQKVDHCARHGEKLLLFCQEDGKVICWLCERSQEHRGHHTFLTEEVAREYQVKLQAALEMLRQKQQEAEELEADIREEKASWKTQIQYDKTNVLADFEQLRDILDWEESNELQNLEKEEEDILKSLTNSETEMVQQTQSLRELISDLEHRLQGSVMELLQGVDGVIKRTENVTLKKPETFPKNQRRVFRAPDLKGMLEVFRELTDVRRYWVDVTVAPNNISCAVISEDKRQVSSPKPQIIYGARGTRYQTFVNFNYCTNYCTGILGSQSITSGKHYWEVDVSKKTAWILGVCAGFQPDAMCNIEKNENYQPKYGYWVIGLEEGVKCSAFQDSSFHTPSVPFIVPLSVIICPDRVGVFLDYEACTVSFFNITNHGFLIYKFSHCSFSQPVFPYLNPRKCGVPMTLCSPSS [human TRIM5α, 4-codon duplication at 343] | 0.441 ± 0.47
8 | MASGILVNVKEEVTCPICLELLTQPLSLDCGHSFCQACLTANHKKSMLDKGESSCPVCRISYQPENIRPNRHVANIVEKLREVKLSPEGQKVDHCARHGEKLLLFCQEDGKVICWLCERSQEHRGHHTFLTEEVAREYQVKLQAALEMLRQKQQEAEELEADIREEKASWKTQIQYDKTNVLADFEQLRDILDWEESNELQNLEKEEEDILKSLTNSETEMVQQTQSLRELISDLEHRLQGSVMELLQGVDGVIKRTENVTLKKPETFPKNQRRVFRAPDLKGMLEVFRELTDVRRYWVDVTVAPNNISCAVISEDKRQVSSPKPQIIYGAGTRYQTFVNFNYCTGILGSQSITSGKHYWEVDVSKKTAWILGVCAGFQPDAMCNIEKNENYQPKYGYWVIGLEEGVKCSAFQDSSFHTPSVPFIVPLSVIICPDRVGVFLDYEACTVSFFNITNHGFLIYKFSHCSFSQPVFPYLNPRKCGVPMTLCSPSS [human TRIM5α, 1-codon deletion at 332] | 0.511 ± 0.36
9 | MASGILVNVKEEVTCPICLELLTQPLSLDCGHSFCQACLTANHKKSMLDKGESSCPVCRISYQPENIRPNRHVANIVEKLREVKLSPEGQKVDHCARHGEKLLLFCQEDGKVICWLCERSQEHRGHHTFLTEEVAREYQVKLQAALEMLRQKQQEAEELEADIREEKASWKTQIQYDKTNVLADFEQLRDILDWEESNELQNLEKEEEDILKSLTNSETEMVQQTQSLRELISDLEHRLQGSVMELLQGVDGVIKRTENVTLKKPETFPKNQRRVFRAPDLKGMLEVFRELTDVRRYWVDVTVAPNNISCAVISEDKRQVSSPKPQIIYGQTFVNFNYCTGILGSQSITSGKHYWEVDVSKKTAWILGVCAGFQPDAMCNIEKNENYQPKYGYWVIGLEEGVKCSAFQDSSFHTPSVPFIVPLSVIICPDRVGVFLDYEACTVSFFNITNHGFLIYKFSHCSFSQPVFPYLNPRKCGVPMTLCSPSS [human TRIM5α, 6-codon deletion at 331] | 1.28 ± 1.5
10 | MASGILVNVKEEVTCPICLELLTQPLSLDCGHSFCQACLTANHKKSMLDKGESSCPVCRISYQPENIRPNRHVANIVEKLREVKLSPEGQKVDHCARHGEKLLLFCQEDGKVICWLCERSQEHRGHHTFLTEEVAREYQVKLQAALEMLRQKQQEAEELEADIREEKASWKTQIQYDKTNVLADFEQLRDILDWEESNELQNLEKEEEDILKSLTNSETEMVQQTQSLRELISDLEHRLQGSVMELLQGVDGVIKRTENVTLKKPETFPKNQRRVFRAPDLKGMLEVFRELTDVRRYWVDVTVAPNNISCAVISEDKRQVSSPKPQIIYGARGTRYQTFVYQTFVNFNYCTGILGSQSITSGKHYWEVDVSKKTAWILGVCAGFQPDAMCNIEKNENYQPKYGYWVIGLEEGVKCSAFQDSSFHTPSVPFIVPLSVIICPDRVGVFLDYEACTVSFFNITNHGFLIYKFSHCSFSQPVFPYLNPRKCGVPMTLCSPSS [human TRIM5α, 5-codon duplication at 336] | 0.485 ± 0.29
11 | MASGILVNVKEEVTCPICLELLTQPLSLDCGHSFCQACLTANHKKSMLDKGESSCPVCRISYQPENIRPNRHVANIVEKLREVKLSPEGQKVDHCARHGEKLLLFCQEDGKVICWLCERSQEHRGHHTFLTEEVAREYQVKLQAALEMLRQKQQEAEELEADIREEKASWKTQIQYDKTNVLADFEQLRDILDWEESNELQNLEKEEEDILKSLTNSETEMVQQTQSLRELISDLEHRLQGSVMELLQGVDGVIKRTENVTLKKPETFPKNQRRVFRAPDLKGMLEVFRELTDVRRYWVDVTVAPNNISCAVISEDKRQVSSPKPQIIYGARGTRYNYCTGILGSQSITSGKHYWEVDVSKKTAWILGVCAGFQPDAMCNIEKNENYQPKYGYWVIGLEEGVKCSAFQDSSFHTPSVPFIVPLSVIICPDRVGVFLDYEACTVSFFNITNHGFLIYKFSHCSFSQPVFPYLNPRKCGVPMTLCSPSS [human TRIM5α, 6-codon deletion at 337] | 0.462 ± 0.37
12 | MASGILVNVKEEVTCPICLELLTQPLSLDCGHSFCQACLTANHKKSMLDKGESSCPVCRISYQPENIRPNRHVANIVEKLREVKLSPEGQKVDHCARHGEKLLLFCQEDGKVICWLCERSQEHRGHHTFLTEEVAREYQVKLQAALEMLRQKQQEAEELEADIREEKASWKTQIQYDKTNVLADFEQLRDILDWEESNELQNLEKEEEDILKSLTNSETEMVQQTQSLRELISDLEHRLQGSVMELLQGVDGVIKRTENVTLKKPETFPKNQRRVFRAPDLKGMLEVFRELTDVRRYWVDVTVAPNNISCAVISEDKRQVSSPKPQIIYQTFVNFNYCTGILGSQSITSGKHYWEVDVSKKTAWILGVCAGFQPDAMCNIEKNENYQPKYGYWVIGLEEGVKCSAFQDSSFHTPSVPFIVPLSVIICPDRVGVFLDYEACTVSFFNITNHGFLIYKFSHCSFSQPVFPYLNPRKCGVPMTLCSPSS [human TRIM5α, 7-codon deletion at 329] | 1.43 ± 1.1
